Reference: PubChem BioAssay AID2060485 (Molecular Pharmacology Branch, DTP, NCI, 2025)
The source holds more than one record for some entries. The list is limited to them. There may be further records. Values given together are repeats (runs, samples, wells, individuals or studies).

Tested on: A375 multi-cell spheroids with HUVEC/MSC, viability
Test: Anticancer human tumor A375 cell line growth inhibition [GQUAD];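 also: spheroids exposed to compounds for seven days before readout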
Conditions: compound alone 3.16 µM; stronger effect = lower value
Source text: DNA G-quadruplex Stabilizer Agents in Combinations in Complex Spheroids
A high-throughput screen of multi-cell type tumor spheroids was designed to identify active combinations of DNA G-quadruplex stabilizer agents and targeted small molecules. Complex spheroids include a stromal component modeled by human endothelial cells (HUVEC) and fibroblasts modeled by human mesenchymal stem cells (MSCs). The concentration ranges selected for each drug and investigational agent were based upon clinically achievable concentrations if the clinical Cmax of the agent was known.
Compounds. […] If the clinical Cmax for an agent had not been determined, the highest concentration tested was 10 microM. […]

Structure (SMILES): Cc1[nH]c2ccc(F)cc2c1-c1nc2c3cccnc3c3ncccc3c2[nH]1
- viability, T/C: 86.6, 96.5, 98.4, 98.2, 91, 97.1, 103, 111, 64.7, 75.3, 83.5, 74.7%
